The whole screen tested about 220,000 compounds, of which about 16,000 (7.3%) were called active. The shares of active, inactive and inconclusive entries below differ from those in the screen. Calls come from the whole dose curve; as a rule, active = well fitted inhibition curve with a large enough effect (not every such curve was filed as active); inconclusive = small, poorly fitted or top-dose-only effect, or another doubt; inactive = no such curve, though single readings can be large or run the other way. Potencies of inconclusive entries are left out as doubtful fits.
molecular target: Aldehyde dehydrogenase 1A1 (Homo sapiens) (UniProt P00352); assay: qHTS Assay for Inhibitors of Aldehyde Dehydrogenase 1 (ALDH1A1); conditions: Purified ALDH1A1, NADH fluorescence, propionaldehyde substrate; series mostly up to 75.3 µM;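 for activity, negative = inhibition: plate controls were no enzyme wells and a reference inhibitor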
Sequence of UniProt P00352 (P00352 whole entry, looked up): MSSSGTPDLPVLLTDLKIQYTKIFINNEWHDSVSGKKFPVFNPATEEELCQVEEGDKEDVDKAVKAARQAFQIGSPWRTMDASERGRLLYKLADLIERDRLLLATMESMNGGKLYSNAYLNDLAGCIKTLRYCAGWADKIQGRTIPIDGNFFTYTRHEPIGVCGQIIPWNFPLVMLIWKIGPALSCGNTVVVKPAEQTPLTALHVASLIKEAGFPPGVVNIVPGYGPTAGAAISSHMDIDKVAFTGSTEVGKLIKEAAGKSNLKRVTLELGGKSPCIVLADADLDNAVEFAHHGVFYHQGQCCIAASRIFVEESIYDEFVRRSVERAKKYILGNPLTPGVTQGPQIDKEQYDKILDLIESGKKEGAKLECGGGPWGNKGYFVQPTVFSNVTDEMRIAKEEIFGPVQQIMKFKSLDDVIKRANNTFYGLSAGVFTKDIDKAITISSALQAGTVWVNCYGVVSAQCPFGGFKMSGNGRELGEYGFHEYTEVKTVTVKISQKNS
Potency is the fitted concentration of half-maximal effect; tags give direction and shape of the fitted curve.

| Structure (SMILES) | Potency | activity, negative = inhibition |
| --- | --- | --- |
| S=C(NCc1ccco1)Nc1cccc(Cl)c1 | inconclusive [inhibitor, single point] |  |
| Cc1onc(-c2c(Cl)cccc2Cl)c1C(=O)c1c[nH]c(C(=O)NC2CC2)c1 | inactive |  |
| COc1ccc(N2CC(C(=O)OCC(=O)c3ccc(C)cc3)CC2=O)cc1 (centres undefined) | inactive |  |
| N#Cc1c(N)nc(SCC(=O)NCCc2ccccc2)c(C#N)c1-c1cccs1 | inconclusive [inhibitor, single point] |  |
| COc1ccccc1-n1c(=O)oc2ccc(Cl)cc2c1=O | inconclusive [inhibitor, partial curve] |  |
| O=C(Nc1ccccc1C(=O)NCc1cccnc1)c1cccc([N+](=O)[O-])c1 | inconclusive [inhibitor, single point] |  |
| CCC(=O)Nc1cc2nn(-c3ccc(C)cc3)nc2cc1C | inactive |  |
| CC(C)CN1C(=O)CC(Sc2ccccc2C(=O)O)C1=O (centres undefined) | active: 17.8 µM |  |
| Nc1c(C(=O)NC2CCCCC2)c2nc3ccccc3nc2n1/N=C/c1ccco1 | inconclusive [inhibitor, single point] |  |
| N#CCC(=O)Nc1cc(C(F)(F)F)ccc1N1CCOCC1 | inactive |  |
| CCCCCCCCCCCC(=O)N1CC(=O)NC(=O)C1 | inactive |  |
| O=C1c2ccccc2C(=O)N1CCCOc1ccccc1 | inactive |  |
| CCOC(=O)CN1C(=O)C(=O)c2cc(C)ccc21 | active: 0.178 µM |  |
| CCn1c(=O)n(CCOC)c(=O)c2c3c(sc21)CCCC3 | inactive |  |
| COc1ccc(CCn2c(-c3ccc(C(C)(C)C)cc3)n[nH]c2=S)cc1OC | inactive |  |
| COc1ccc(/C=N/NS(=O)(=O)c2ccc(C)cc2)cc1OC(=O)c1ccccc1 | inconclusive [inhibitor, partial curve] |  |
| Cc1ccc(-c2c(C(=O)N3CCOCC3)oc(=O)c3ccccc23)cc1 | active: 1.58 µM |  |
| O=C(COc1ccccc1[N+](=O)[O-])OCC(=O)N1CCC(Cc2ccccc2)CC1 | inconclusive [inhibitor, single point] |  |
| CC(C)(C)c1ccc(C(=O)c2c[nH]c(C(=O)NCCc3ccccn3)c2)cc1 | inactive |  |
| CC1Oc2ccccc2C=C1/C=N/NC(=O)[C@@H](C)NC(=O)OC(C)(C)C (some centres undefined) | inconclusive [inhibitor, single point] |  |
| O=C(Nc1nnc(SCc2ccccc2Cl)s1)c1cccc([N+](=O)[O-])c1 | inconclusive [inhibitor, partial curve] |  |
| COCc1cc(C)nc2sc(C(=O)N3CCCCC3)c(N)c12 | active: 17.8 µM |  |
| COc1ccc(-c2cc(C3CCN(C(=O)OC(C)(C)C)CC3)[nH]n2)cc1 | inactive |  |
| COc1cccc(Nc2ncc3nc(CCc4ccccc4)c(=O)n(Cc4cccs4)c3n2)c1 | inconclusive [inhibitor, single point] |  |
| C=CCc1cc(/C=C2/NC(=O)N(CC)C2=O)cc(OCC)c1OCc1ccc(C(=O)O)cc1 | active: 3.16 µM |  |
| CCOc1cc(C2NN=C(c3ccccc3)S2)ccc1OCc1ccc(F)cc1 (centres undefined) | inconclusive [inhibitor, partial curve] |  |
| COC(=O)[C@H](Cc1ccccc1)NC(=O)Nc1ccc(C)cc1 | inactive |  |

| Structure (SMILES) | Potency | activity, negative = inhibition |
| --- | --- | --- |
| Cn1cccc1Cc1nnc(SCC(=O)NCc2ccco2)n1CCc1ccccc1 | inconclusive [inhibitor, single point] |  |
| Cc1ccc(-c2nn(-c3cc(Cl)ccc3[N+](=O)[O-])c(=O)c3ccccc23)cc1C | inactive |  |
| Cc1nc(-c2ccccc2Cl)sc1C(=O)/C=C/N(C)C | inconclusive [inhibitor, single point] |  |
| CCN1C(=O)/C(=C\N(C)C)c2ccccc21 | inconclusive [inhibitor, partial curve] |  |
| O=S(=O)(/N=C(/c1ccccc1)N1CCCCCC1)c1ccccc1 | inconclusive [inhibitor, single point] |  |
| CCN1CCC(O)([C@H](C(=O)O)c2ccccc2)CC1 |  | inactive: -15.2% [at 13.5 µM] |
| O=C1NCCN(Cc2c(F)cccc2Cl)C1CC(=O)N1CCCCO1 (centres undefined) | inactive |  |
| O=C(c1ccccc1)c1ccccc1N1C(=O)C=CC1=O | active: 3.16 µM |  |
| O=c1cnc2ccccc2n1CC1CCCCC1 | inconclusive [inhibitor, partial curve] |  |
| CCOCCn1cnc2sc(C(=O)Nc3nc(C)c(C(=O)OCC)s3)c(C)c2c1=O | inactive |  |
| CC1(C)Cc2ccccc2-c2nnc(SCC(=O)N3CCN(c4ccccc4)CC3)n21 | inconclusive [inhibitor, single point] |  |
| CC(=O)c1ccc(OCC(O)CN2CCN(Cc3ccc4c(c3)OCO4)CC2)cc1 (centres undefined) | inactive |  |
| O=C(Nc1ccc2cn[nH]c2c1)c1ccccc1F | inactive |  |
| CN(C)Cc1ccccc1-c1cc(N(C)Cc2ccco2)ncn1 | inconclusive [inhibitor, single point] |  |
| COc1ccc(C2c3c(ccc4ccccc34)Oc3ncn4nc(Cc5ccccc5)nc4c32)cc1OC (centres undefined) | inconclusive [inhibitor, single point] |  |
| CCc1ccccc1NC(=O)CSc1ccsc1[N+](=O)[O-] | inconclusive [inhibitor, single point] |  |
| Cc1ccc(Nc2nc(CSc3nnnn3-c3ccccc3)cc(=O)[nH]2)cc1 | active: 22.4 µM |  |
| S=c1[nH]nc(-c2ccccn2)n1/N=C/c1ccc(Br)s1 | inconclusive [inhibitor, single point] |  |
| Cc1onc(-c2ccccc2)c1CNC(=O)CN1C(=O)c2ccccc2C1=O | inactive |  |
| Cc1ccc(C)c(OCC(=O)N2CCN(C(=O)c3ccco3)CC2)c1 | inactive |  |
| COc1ccc(Cn2nnc3c(=O)[nH]c(C4CCN(C(=O)c5ccccc5Cl)CC4)nc32)cc1 | active: 14.1 µM |  |
| c1ccc(-c2ccc(N3CC4(CCNCC4)C3)cc2)cc1 | inconclusive [inhibitor, partial curve] |  |
| C/C(=N\NC(N)=S)C1C2C3CC4C5CC(C42)C1C53 (centres undefined) | inconclusive [inhibitor, full curve] |  |
| Cc1ccc(N2C(=O)c3ccc(N)cc3C2=O)cc1 | inconclusive [inhibitor, single point] |  |
| Cc1noc(C)c1-c1nc(CSc2ccc(Cl)cc2)no1 | inactive |  |
| C=CCn1c(-c2cc(-c3ccc(C)cc3)nc3ccccc23)n[nH]c1=S | inactive |  |
| COc1ccc(/C=C2/C(=O)N(Cc3ccccc3)N=C2C)cc1 | inconclusive [inhibitor, partial curve] |  |

| Structure (SMILES) | Potency | activity, negative = inhibition |
| --- | --- | --- |
| O=C(CC1Nc2cccc3cccc(c23)NC1=O)Nc1ccc(F)cc1 (centres undefined) | inconclusive [inhibitor, single point] |  |
| O=C(O)CNS(=O)(=O)c1ccc(F)cc1 | inactive |  |
| CC1=C(C(=O)OCCOC(C)C)C(c2cc3c(cc2Br)OCO3)C2=C(CCCC2=O)N1 (centres undefined) | inconclusive [inhibitor, single point] |  |
| Oc1ccc(Cl)cc1N=Cc1sc2ccccc2c1Cl | inconclusive [inhibitor, partial curve] |  |
| COc1ccc(N=C2S/C(=C\c3ccc(C)s3)C(=O)N2CC(C)C)cc1 | inconclusive [inhibitor, full curve] |  |
| C=C(C)c1cccc(C(C)(C)NC(=O)N2CCN(c3ccccn3)CC2)c1 | inconclusive [inhibitor, single point] |  |
| O=C(NCc1ccncc1)Nc1ccccc1F | inactive |  |
| Cc1cc(C)cc(OCC(=O)NCCN2CCOCC2)c1 | inactive |  |
| CCCc1c(C)c2ccc(OCC(C)=O)cc2oc1=O | inconclusive [inhibitor, partial curve] |  |
| CN1CCC[C@@H](CC2c3ccccc3Sc3ccccc32)C1 | inactive |  |
| CC(C)c1ccc(N(CC(=O)NCCSC(C)(C)C)S(C)(=O)=O)cc1 | inactive |  |
| C/C(=N\Nc1nc2c(s1)CCCC2)c1ccc(Cl)cc1 | active: 28.2 µM |  |
| CCCc1nn(C)c2c1C(c1ccncc1)C(C#N)=C(N)O2 (centres undefined) | inactive |  |
| Cc1ccc(-n2c(N)c(C#N)c(-c3ccccc3)c(C#N)c2=O)cc1 | inconclusive [inhibitor, partial curve] |  |
| CNC(=O)CSc1nc(SC)ns1 | inconclusive [inhibitor, single point] |  |
| Cc1ccccc1Nc1c(-c2ccccn2)nc2ccccn12 | inconclusive [inhibitor, partial curve] |  |
| O=C(/C=C/c1ccccc1)Oc1cccc(C(=S)N2CCOCC2)c1 | active: 4.47 µM |  |
| COc1ccc(/C(O)=C2/C(=O)C(=O)N(CC3CCCO3)C2c2ccc(OC)c(OC)c2)cc1 (centres undefined) | inactive |  |
| O=C(C1CCN(S(=O)(=O)c2cccs2)CC1)N1CCN(Cc2ccccc2)CC1 | inconclusive [inhibitor, single point] |  |
| O=C(O)c1ccc(S(=O)(=O)N=Nc2c(O)[nH]c3ccccc23)cc1 | inconclusive [inhibitor, single point] |  |
| O=c1[nH]c(/C=C/c2cccc3ccccc23)nc2ccccc12 | inactive |  |
| COc1ccc2c(C)cc(SCC(=O)Nc3cc(C(N)=O)cc(C(N)=O)c3)nc2c1 | inconclusive [inhibitor, single point] |  |
| CC(=O)c1ccc2c(c1)N(CCCN1CCC(CCO)CC1)c1ccccc1S2 | inactive |  |
| C=CCN1C(=O)/C(=C2/Sc3ccc(OC)cc3N2C)SC1=Nc1ccccc1 | inactive |  |
| Cc1ccc(OCC(=O)N/N=C\c2ccc(O)cc2)c([N+](=O)[O-])c1 | inactive |  |

Source: PubChem BioAssay AID1030 (National Center for Advancing Translational Sciences (NCATS), 2008)
